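Cultured in 96-well plates, cells were exposed to test compound for 48 hours across five concentrations. Here, GI50 denotes the concentration required for 50% inhibition of growth. TGI: total growth inhibition.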 Where only a bound is given, the exact number is not on record here.

The subject of this test is NCI-H322M lung. Nature of the test: DTP human tumour cell line panel, 48 h.
As to `N#Cc1cccc(C2ON=C(c3ccc([N+](=O)[O-])cc3)N2C23CC4CC(CC(C4)C2)C3)c1` (centres undefined), the total growth inhibition concentration (TGI) was over 100 µM.

Take `CC(=O)O[C@H]1C(=O)[C@@]2(C)C([C@H](OC(=O)c3ccccc3)[C@]3(O)C[C@H](OC(=O)[C@H](O)[C@H](NC(=O)c4ccccc4)c4ccc(Cl)cc4)C(C)=C1C3(C)C)C1(OC(C)=O)CO[C@@H]1C[C@@H]2O` (some centres undefined): the concentration for total growth inhibition (TGI) came out at 0.0736 µM.

In the case of `CCOC(=O)c1cnc(SCc2ccc(Cl)c(Cl)c2)nc1N1CC1`, the GI50 was 4.86 µM and the TGI came out at 16.9 µM.

For `Cc1ccc(S(=O)(=O)N/N=C/C(Br)=C(/Br)C(=O)O)cc1`, the TGI was found to be 37.7 µM.

Turning to `Cc1cc(C)nc(NS(=O)(=O)c2ccc(Nc3c4ccccc4nc4c(C(=O)Nc5ccc(S(N)(=O)=O)cc5)cccc34)cc2)n1`, the TGI was over 100 µM.

`COC1C=C(Nc2cccc(Cl)c2)C(=O)C1` (centres undefined): the TGI is over 100 µM.

Regarding `N#C/C(=C\c1c(-c2ccccc2)[nH]c2ccccc12)C(=O)c1ccc(Cl)cc1`, the GI50 is 9.11 µM and the TGI is over 100 µM.

`CC[C@@H]1CN2CCC1C[C@@H]2C(O)c1ccnc2ccc(OCCN3CCN(CCOc4ccc5nccc(C(O)[C@@H]6C[C@@H]7CCN6C[C@@H]7CC)c5c4)CC3)cc12` (some centres undefined) displayed a TGI of 27.5 µM.

Compound `COc1ccc(-c2oc3cc(O)c(OC)c(O)c3c(=O)c2OC2OC(CO)C(O)C(O)C2O)cc1` (centres undefined) displayed a TGI of over 100 µM.

In turn, `CC1=C2C(=O)O[C@@H](c3ccoc3)[C@]2(C)CCC1=O` returned a concentration for total growth inhibition (TGI) of over 100 µM.

For `CN1CCN(c2nc3ccccc3nc2C(=O)c2ccc(Cl)cc2)CC1`, the TGI was over 100 µM.

Turning to `Cc1ccc(S(=O)(=O)NC(CCC(=O)Nc2ccc(Cl)cc2)C(=O)Nc2ccc(Cl)cc2)cc1` (centres undefined), the GI50 was 1.28 µM and the TGI worked out at 9.24 µM.

`C=CC1C2=C(C(=O)NCC2)C2OC(O)C3=C(CCNC3=O)C2C1C` (centres undefined) registered a TGI of over 100 µM.

As to `O=[N+]([O-])c1ccc(N/N=C\c2cc(Cl)ccc2O)nc1`, the GI50 is 0.63 µM and the TGI was found to be 4.39 µM.

`CC(=O)Oc1c(C)cc(-c2cc(C)c(OC(C)=O)c(C)c2)cc1C` yielded a TGI of over 100 µM.

Regarding `CCOC(=O)c1c(O)[nH]c(=O)c(CC)c1C`, the TGI was over 100 µM.

As for `COc1ccc(/C=C2\CN(C(=O)CCN3CCC(=NO)CC3)C/C(=C\c3ccc(OC)cc3)C2=O)cc1`, the GI50 was 2.31 µM and the TGI was 5.76 µM.

Turning to `Nc1nc(Cl)c(C=O)c(NCC2(CO)CC(CCc3ccccc3)C2)n1` (centres undefined), the TGI came to 26.4 µM.

`C/C(=N\NC(=S)Nc1ccc(C(=O)O)cc1)c1ccccn1` registered a TGI of 51.2 µM. This TGI lies about 1.9-fold higher than the previous one.

The compound `OC1c2ccccc2[C@@H]2[C@H]1[C@@H](c1ccccc1)C1(Cc3ccccc3C1O)[C@H]2c1ccccc1` (some centres undefined) gave a TGI of 22.5 µM.

Consider `S=C(NNC1=NCCCN1)Nc1ccccc1`, for which the TGI was over 100 µM.

`O=C1c2ccccc2-c2c1c1ccccc1c(=O)n2CCO` returned a TGI of over 100 µM.

Compound `C1=CN2C[n+]3cccc(OCc4ccccc4)c3N=C2C(OCc2ccccc2)=C1` gave a TGI of over 100 µM.

As to `CC1=C(C(=O)Nc2ccc([N+](=O)[O-])cc2)C(c2ccco2)C(C(=O)Nc2ccc([N+](=O)[O-])cc2)=C(C)N1`, the TGI is over 100 µM.

On to `CC(=O)[CH-]C(=O)c1ccccc1.CC(=O)[CH-]C(=O)c1ccccc1.CCN(CC)CC[O-].CCN(CC)CC[O-].Cl.[Ti+4]`, for which the GI50 was 50.1 µM and the TGI is over 100 µM.

`O=C1CC2CC=C[C@H]3c4cc5c(cc4C(=O)N1C23)OCO5` (some centres undefined) yielded a TGI of over 50 µM.

Consider `COc1cc[nH]c1/C=C1\C(=O)Nc2ccc(F)c(C#C[C@@H](O)[C@@H](N)[C@@H](C)O)c21`, for which the GI50 is 0.502 µM and the TGI worked out at 2.34 µM.

Turning to `O=C(O)CN(c1ccc(Cl)cc1)S(=O)(=O)c1ccccc1`, the TGI is over 100 µM.

For the compound `OB([O][Hg][c]1ccccc1)[O][Hg][c]1ccccc1`, the GI50 is 1.52 µM and the TGI was found to be 2.96 µM.

Compound `O=S(=O)(O)CS(=O)(=O)OCCCl` showed a TGI of over 100 µM.

Compound `CC(=O)OCCC1c2ccccc2-n2nc(-c3ccccc3)c(O)c21` (centres undefined) had a TGI of 40.4 µM.

Consider `CNC(=O)OCc1nc(SC(C)C)n(C)c1COC(=O)NC`, for which the TGI was over 100 µM.

In turn, `O=C1C=C(N2CCCC2)C=C(N2CCCC2)C1` yielded a TGI of over 100 µM.

With `Cc1cc(C)c(S(=O)(=O)N[C@@H](/C=C(\Br)CO)C(C)C)c(C)c1`, the TGI is over 100 µM.

As to `N#Cc1ccccc1NC(=O)C(=O)C(C(=O)c1ccccc1-c1ccccc1)C1OC(=O)c2ccccc21` (centres undefined), the total growth inhibition concentration (TGI) turned out to be 35.2 µM.

Take `Cn1cc(-c2ccc(=O)n(Cc3cccc(-c4ncc(OCCN5CCOCC5)cn4)c3)n2)cn1`: the GI50 was over 100 µM and the TGI was over 100 µM.

`COc1ccc(N(C)c2nc(C)nc3ccccc23)cc1`: the GI50 was under 0.01 µM and the TGI was over 100 µM.

Turning to `CCOC(=O)c1cccc(NC(=O)CBr)c1`, the TGI came out at 6.89 µM.

For the compound `C1CCC([PH+](C2CCCCC2)C2CCCCC2[PH+](C2CCCCC2)C2CCCCC2)CC1.[Au].[CH-]1CCCCC1C1CCCC[N-]1` (centres undefined), the GI50 was 0.37 µM and the TGI was 1.48 µM.

Turning to `COc1cc2c(cc1OC)C(=O)C(Br)CC2` (centres undefined), the GI50 is 14.9 µM and the TGI worked out at 28.3 µM.

In turn, `CC1=COC(=O)c2ccccc2N1` displayed a TGI of over 100 µM.

Compound `O=S(=O)(c1ccc(NC(=S)N/N=C/c2ccccc2O)cc1)N1CCCCC1` came in with a TGI of 2.98 µM. This counts as single-digit micromolar.

For `CC(Cc1ccc(Cl)cc1Cl)NO` (centres undefined), the TGI is over 100 µM.

On to `CCOP(=O)(OCC)C1C(=O)O[C@H]2CCCC[C@@H]12` (some centres undefined), for which the TGI was over 100 µM.

Regarding `O=C1/C(=C\c2ccc([N+](=O)[O-])cc2)Sc2scc(-c3ccc(O)c(O)c3)[n+]21`, the total growth inhibition concentration (TGI) is 52.5 µM. This lies in the double-digit micromolar range.

With `Nc1nc(N)[n+]([O-])c(N)c1NCO`, the TGI is over 100 µM.

`Cc1ccc(-c2sc(-c3ccc(C)cc3)c3c2C2CCC3C2)cc1` had a TGI of over 50 µM.

Compound `ClC(=Nc1cccc2ccccc12)N(c1ccccc1)c1ccccc1` had a TGI of over 100 µM.

`O=C1NCC2(CCNCC2)N1c1ccccc1` registered a TGI of over 100 µM.

`Cc1ccc(/C=C2\CN(C)CC3C(c4ccc(C)cc4)=C(C#N)C(=O)NC23)cc1` (centres undefined) yielded a concentration for total growth inhibition (TGI) of over 50 µM.

`Cc1cc(S(N)(=O)=O)c(SCc2nc(N)nc(N(C)C)n2)cc1Cl` returned a TGI of over 10 µM.

In turn, `O=S(=O)(c1cc(Cl)ccc1Cl)N1CCN(c2ccc(Cl)c(Cl)c2)CC1` displayed a TGI of over 100 µM.

Values taken from PubChem BioAssay (NCI).
